Test results from the antibiotic and cytotoxicity screens of Wong et al. (2023).
The other results are listed elsewhere or left out.

What was measured:
HSkMC = human skeletal muscle cells; test: cytotoxicity call (relative viability < 0.9); settings: 10 µM
HepG2 = test: cytotoxicity call (relative viability < 0.9); settings: 10 µM
S. aureus RN4220 = test: growth inhibition call (relative growth <= 0.2); settings: 50 µM

| SMILES | cytotoxicity call (HSkMC) | cytotoxicity call (HepG2) | growth inhibition call (S. aureus RN4220) |
| --- | --- | --- | --- |
| C[C@H](CO)N1C[C@H](C)[C@@H](CN(C)C(=O)c2cnccn2)Oc2cc(Br)ccc2S1(=O)=O | inactive | inactive | inactive |
| COC(=O)Cn1c(=O)c2c(OC)c(C)cnc2n(C)c1=O | inactive | inactive | inactive |
| C[C@@H]1CCCCO[C@@H](CN(C)Cc2ccc(C(F)(F)F)cc2)[C@@H](C)CN([C@@H](C)CO)C(=O)c2cc(NS(=O)(=O)c3cccs3)ccc2O1 | inactive | active | inactive |
| COc1cccc(-c2cnc3c(c2)C(=O)N([C@H](C)CO)C[C@H](C)[C@H](CN(C)S(=O)(=O)c2cn(C)cn2)O3)c1 | inactive | inactive | inactive |
| COc1ccc(NC(=O)N(C)C[C@@H]2Oc3c(NC(=O)Nc4cccc5ccccc45)cccc3C(=O)N([C@@H](C)CO)C[C@@H]2C)cc1 | inactive | inactive | inactive |
| C[C@@H]1c2ncc(CN3CCN(C)CC3)n2CCN1S(C)(=O)=O | inactive | inactive | inactive |
| CNC(=O)C(=O)NC[C@H](c1ccc2c(c1)OCO2)N1CCOCC1 | inactive | inactive | inactive |
| C[C@@H]1CCCCO[C@@H](CN(C)Cc2ccc(C(F)(F)F)cc2)[C@H](C)CN([C@@H](C)CO)C(=O)c2cc(NC(=O)Nc3ccccc3)ccc2O1 | inactive | inactive | inactive |
| C[C@@H]1CN([C@H](C)CO)C(=O)c2cccc(NC(=O)Nc3ccccc3)c2O[C@H]1CN(C)C(=O)Nc1cccc2ccccc12 | inactive | inactive | inactive |
| C[C@@H]1CCCCO[C@H](CN(C)C(=O)Cc2ccccc2)[C@@H](C)CN([C@H](C)CO)C(=O)c2cc(NC(=O)Cc3ccccc3)ccc2O1 | inactive | inactive | inactive |
| C[C@H]1CN([C@@H](C)CO)C(=O)c2cc(NC(=O)Cc3cn(C)c4ccccc34)ccc2O[C@@H]1CN(C)Cc1ccc(-c2ccccc2)cc1 | inactive | active | inactive |
| C[C@@H]1O[C@H]2Oc3c(-c4ccc(O)cc4)oc4cc(O)c(c(O)c4c3=O)-c3cc(ccc3O)/C=C\C(=O)OC[C@H]3O[C@@H](O[C@H]([C@H]1O)[C@H]2O)[C@H](O)[C@@H](O)[C@@H]3O | inactive | inactive | inactive |
| CC(C)CC#Cc1ccc2c(c1)O[C@H](CN(C)C(=O)c1cnccn1)[C@@H](C)CN([C@H](C)CO)S2(=O)=O | inactive | inactive | inactive |
| COc1ccc(S(=O)(=O)Nc2ccc3c(c2)C(=O)N([C@H](C)CO)C[C@@H](C)[C@H](CN(C)Cc2ccc(C(=O)O)cc2)OCCCC[C@@H](C)O3)cc1 | inactive | inactive | inactive |
| Cc1noc(C)c1NC(=O)Nc1ccc2c(c1)CC(=O)N([C@@H](C)CO)C[C@H](C)[C@H](CN(C)S(=O)(=O)c1cccs1)O2 | inactive | inactive | inactive |
| COc1ccc(cc1)CN1C[C@]2(CCN(CC2)C(=O)Nc2cccc(c2)F)c2c([nH]c3cc(ccc23)OC)[C@@H]1CO | inactive | inactive | inactive |
| C=CCOC(=O)[C@H]1[C@@H]2C(=O)O[C@@H](c3ccccc3)[C@@H](c3ccccc3)N2[C@@H](c2ccc(OCCOC(=O)[C@@H]3C[C@@H]4C(=O)N5CCC[C@H]5C(=O)N4[C@@H]3c3ccc(O)cc3)cc2)[C@]12C(=O)Nc1ccccc12 | inactive | inactive | inactive |
| CC(C)NC(=N)NC(=N)Nc1ccc(Cl)cc1.Cl | inactive | active | inactive |
| CC(C)NC(=O)Nc1ccc2c(c1)C(=O)N([C@H](C)CO)C[C@@H](C)[C@H](CN(C)C(=O)Nc1ccc(F)cc1)OCCCC[C@@H](C)O2 | inactive | inactive | inactive |
| C=CCCCCCCCCCCCc1ccco1 | inactive | inactive | inactive |
| C[C@H](CO)N1C[C@H](C)[C@H](CN(C)C(=O)Nc2cccc3ccccc23)Oc2ccc(NC(=O)CCC(F)(F)F)cc2CC1=O | inactive | inactive | inactive |
| CNC1CC(N)C(O)C(OC2OC(CO)C3OC4(OC(C(N)CO)C(O)C(O)C4O)OC3C2O)C1O (configuration not stated) | inactive | inactive | inactive |
| C[C@@H]1CN([C@H](C)CO)C(=O)c2cccc(NS(=O)(=O)c3ccc(F)cc3)c2O[C@H]1CN(C)Cc1ccncc1 | inactive | inactive | inactive |
| Cc1ccc(S(=O)(=O)N(C)C[C@H]2Oc3ccc(NC(=O)Nc4ccc(C(F)(F)F)cc4)cc3CC(=O)N([C@@H](C)CO)C[C@H]2C)cc1 | active | active | inactive |
| COc1ccc(CN(C)C[C@H]2Oc3ccc(NC(=O)Nc4ccc(C(F)(F)F)cc4)cc3C(=O)N([C@H](C)CO)C[C@H]2C)cc1 | inactive | active | inactive |
| C[C@@H]1CN([C@@H](C)CO)C(=O)c2cc(NS(=O)(=O)c3ccc(Cl)cc3)ccc2O[C@@H]1CN(C)C(=O)Nc1ccc(C(F)(F)F)cc1 | inactive | inactive | inactive |
| O=C(C[C@@H]1C=C[C@H](NC(=O)C2CCC2)[C@H](CO)O1)NCCCN1CCOCC1 | inactive | inactive | inactive |

| SMILES | cytotoxicity call (HSkMC) | cytotoxicity call (HepG2) | growth inhibition call (S. aureus RN4220) |
| --- | --- | --- | --- |
| Cc1noc(C)c1S(=O)(=O)Nc1ccc2c(c1)C(=O)N([C@H](C)CO)C[C@H](C)[C@H](CN(C)C)OCCCC[C@@H](C)O2 | inactive | inactive | inactive |
| C[C@@H]1CN([C@@H](C)CO)C(=O)c2cc(C#CCc3ccccc3)cnc2O[C@H]1CN(C)C(=O)C1CCOCC1 | inactive | inactive | inactive |
| C[C@@H]1CN([C@H](C)CO)C(=O)Cc2cc(NC(=O)CCN3CCOCC3)ccc2O[C@H]1CN(C)S(=O)(=O)c1cn(C)cn1 | inactive | inactive | inactive |
| C[C@@H]1CN([C@@H](C)CO)C(=O)c2cc(NC(=O)Nc3ccc(F)cc3)ccc2O[C@@H](C)CCCCO[C@@H]1CN(C)S(=O)(=O)c1cccs1 | inactive | inactive | inactive |
| C[C@H](CO)N1C[C@H](C)[C@@H](CN(C)C(=O)CCCN(C)C)OCCCC[C@H](C)Oc2ccc(NC(=O)Nc3ccc(C(F)(F)F)cc3)cc2C1=O | inactive | inactive | inactive |
| CO[C@H]1CN(C)C(=O)c2cc(NS(=O)(=O)c3cn(C)cn3)ccc2OC[C@H](C)N(Cc2cccc(F)c2)C[C@@H]1C | inactive | inactive | inactive |
| C[C@H]1CN([C@@H](C)CO)C(=O)c2cc(NC(=O)Cn3cnnn3)ccc2O[C@H]1CN(C)C(=O)Nc1ccc(F)cc1 | inactive | inactive | inactive |
| CC(C)c1ccc2oc3nc(N)c(C(=O)O)cc3c(=O)c2c1 | inactive | inactive | inactive |
| C[C@@H]1CN([C@@H](C)CO)C(=O)c2cc(NC(=O)Nc3ccc4c(c3)OCO4)ccc2O[C@@H](C)CCCCO[C@@H]1CN(C)CC1CCCCC1 | inactive | inactive | inactive |
| C[C@H](N)C12CC3CC(CC(C3)C1)C2 | inactive | inactive | inactive |
| C[C@@H]1CN([C@@H](C)CO)C(=O)Cc2cc(NS(=O)(=O)c3cccs3)ccc2O[C@@H]1CN(C)CC1CC1 | inactive | inactive | inactive |
| O=C(C[C@@H]1CC[C@H](NS(=O)(=O)c2ccccc2)[C@H](CO)O1)NCc1ccncn1 | inactive | inactive | inactive |
| C[C@@H]1CN([C@@H](C)CO)C(=O)c2cc(NS(C)(=O)=O)ccc2O[C@@H](C)CCCCO[C@@H]1CN(C)C(=O)CCCN(C)C | inactive | inactive | inactive |
| C[C@@H]1CCCCO[C@@H](CN(C)C(=O)Nc2cccc3ccccc23)[C@@H](C)CN([C@@H](C)CO)C(=O)c2cc(NC(=O)c3ccccc3)ccc2O1 | inactive | inactive | inactive |
| COc1cccc(NC(=O)N2C[C@@H](O)COC[C@@H]3O[C@@H](CC(=O)NC4Cc5ccccc5C4)CC[C@H]32)c1 | inactive | inactive | inactive |
| C[C@@H]1CN([C@H](C)CO)S(=O)(=O)c2ccc(C#CC3(O)CCCC3)cc2O[C@@H]1CN(C)C(=O)c1cccnc1 | inactive | inactive | inactive |
| Cc1noc(C)c1NC(=O)Nc1ccc2c(c1)C(=O)N([C@H](C)CO)C[C@H](C)[C@@H](CN(C)S(=O)(=O)c1ccccc1)OCCCC[C@@H](C)O2 | inactive | inactive | inactive |
| Cc1noc(C)c1S(=O)(=O)N(C)C[C@H]1OCCCC[C@H](C)Oc2ccc(NC(=O)Nc3ccccc3)cc2C(=O)N([C@@H](C)CO)C[C@@H]1C | inactive | inactive | inactive |
| C[C@H](CO)N1C[C@H](C)[C@@H](CN(C)Cc2ccc(Cl)c(Cl)c2)Oc2ccc(NS(=O)(=O)c3ccccc3)cc2C1=O | inactive | inactive | inactive |
| Cc1noc(C)c1NC(=O)N(C)C[C@H]1OCCCC[C@H](C)Oc2ccc(NC(=O)C3CCCCC3)cc2C(=O)N([C@H](C)CO)C[C@H]1C | inactive | inactive | inactive |
| O=C(NO)c1cccc(C(=O)N/N=C/[C@H](O)[C@@H](O)[C@H](O)CO)c1 | inactive | inactive | inactive |
| C[C@@H]1CN([C@H](C)CO)C(=O)c2cc(NC(=O)c3ccccc3)ccc2O[C@@H](C)CCCCO[C@@H]1CN(C)S(=O)(=O)c1cccs1 | inactive | inactive | inactive |
| CC(C)N1C(=O)C[C@@](C(=O)NCCN2CCOCC2)(c2ccc([N+](=O)[O-])cc2)[C@H]1c1ccc(CO)cc1 | inactive | inactive | inactive |
| c1cc(CCN2CCNCC2)ccn1 | inactive | inactive | inactive |
| CCC(=O)Nc1cnc(OC)nc1OC | inactive | inactive | inactive |
| COc1ccc([Si](C)(C)[C@H]2[C@H](CCn3cc([C@H](O)c4ccccc4)nn3)O[C@@]3(C(=O)N(c4ccccc4)c4ccccc43)[C@@H]2C)cc1 | inactive | inactive | inactive |
| COCC(=O)Nc1ccc2c(c1)C(=O)N(C)[C@@H]1CC[C@@H](CC(=O)NCc3ccc(OC)cc3)O[C@@H]1CO2 | inactive | inactive | inactive |
